Reference: the supplement of paper PMC11741623
The list shows a part of the results. Interaction screen of human proteins with wild-type SARS-CoV-2 proteins by split-DHFR complementation in yeast, 1 µg/mL methotrexate. Value = fitness of the pair (three or more lineages) minus that of the viral protein without a human partner, on a scale set by negative (0) and fused positive (1) controls, mean of up to three cultures; higher = more likely to interact. Active = false discovery rate below 0.05 (one-sided t-test) in at least one culture. Nearly all pairs are not hits, and differences among them are mostly noise (correlation between cultures about 0.3); most hits were seen in one culture only. Human sequences are the Swiss-Prot entries looked up by gene name; the clone may be another isoform. NSP2 values were corrected by the authors for a growth advantage. Listed are human proteins with a hit and a random twelfth of the others.

B1: C3orf25, Q6NXP0 (protein)
chain: MDDDYEAYHSLFLSLLGLCPSKTPINENAPVFDPEPVIAHCFKQFQQKDFRLPQTRRRIIMVPRKEDQTPLNPASQPQAPPKPIPSFKVLEARDIQEQPEDRKTWLSQRSKLRQELESFGDVKRWLENKPSITPSEAKVLHMIHEEQSAQPNASQATTRTTRKKAPRLSRLSRQMVPQLQLPEPPALSVMYSYLHSRKIKILEIFHKVGQGENQRITREEFIAAVKAVGVPLKNQEVEDIVIYLSSLGKHNTITMDILANTYKQWSMAQQRSSLATAREHYILAKHRDSLKGPLKKQEVDSAPQLPKVDLLTVPAVDTQMETRPMTLEEMEEVGKRYRERQRQHKLTIPSIQYTEQCHLVRCGNRHFDEHCLPSTIHGDMRELIDSARRHNFLVYLQCWKLCKSYGLPLTEDILMKALLYPGDKIIFQMDKVCPIRQPGGYYSDWKVFSPNLALLRSQGPGKSKRTDKKTPKKSKKMRFKEFEEFTRKLKVKRSSGLQQTHPNSFWPGHLLDKLQLYLPTVATDRSLALFSCVQHQPHVYPATYHPDHWWPLRNKNYMTHAHYDAAKVYYIN

Target: SARS-CoV-2 E
Assay: yeast fitness gain over the viral ORF with no human partner (scaled fitness); higher = more likely to interact
Experimental: (§1)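 Split mouse DHFR complementation in pooled diploid yeast: human ORFeome clones carry one fragment and viral ORFs the other; barcoded lineages compete in 1 µg/mL methotrexate and fitness is read by barcode sequencing in up to three cultures.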

Binder	yeast fitness gain
B1	inactive: 0.0407
MAARAVFLALSAQLLQARLMKEESPVVSWRLEPEDGTALCFIF [BAGE, Q13072]	inactive: 0.0129

Target: SARS-CoV-2 M
Assay: as above
Experimental: as §1

Binder	yeast fitness gain
B1	inactive: 0.00467
MAARAVFLALSAQLLQARLMKEESPVVSWRLEPEDGTALCFIF [BAGE, Q13072]	inactive: -0.0301

Target: SARS-CoV-2 N
Assay: as above
Experimental: as §1

Binder	yeast fitness gain
B1	inactive: 0.0621
MAARAVFLALSAQLLQARLMKEESPVVSWRLEPEDGTALCFIF [BAGE, Q13072]	inactive: 0.119

Target: SARS-CoV-2 NSP1
Assay: as above
Experimental: as §1

Binder	yeast fitness gain
B1	inactive: -0.0191
MAARAVFLALSAQLLQARLMKEESPVVSWRLEPEDGTALCFIF [BAGE, Q13072]	inactive: 0.021

Target: SARS-CoV-2 NSP10
Assay: as above
Experimental: as §1

Binder	yeast fitness gain
B1	inactive: 0.017
MAARAVFLALSAQLLQARLMKEESPVVSWRLEPEDGTALCFIF [BAGE, Q13072]	inactive: -0.028

Target: SARS-CoV-2 NSP12
Assay: as above
Experimental: as §1

Binder	yeast fitness gain
B1	inactive: 0.0377
MAARAVFLALSAQLLQARLMKEESPVVSWRLEPEDGTALCFIF [BAGE, Q13072]	inactive: 0.0377

Target: SARS-CoV-2 NSP13
Assay: as above
Experimental: as §1

Binder	yeast fitness gain
B1	inactive: 0.0131
MAARAVFLALSAQLLQARLMKEESPVVSWRLEPEDGTALCFIF [BAGE, Q13072]	inactive: 0.00961

Target: SARS-CoV-2 NSP14
Assay: as above
Experimental: as §1

Binder	yeast fitness gain
B1	inactive: 0.16
MAARAVFLALSAQLLQARLMKEESPVVSWRLEPEDGTALCFIF [BAGE, Q13072]	inactive: -0.0757

Target: SARS-CoV-2 NSP15
Assay: as above
Experimental: as §1

Binder	yeast fitness gain
B1	inactive: 0.0963
MAARAVFLALSAQLLQARLMKEESPVVSWRLEPEDGTALCFIF [BAGE, Q13072]	inactive: -0.058

Target: SARS-CoV-2 NSP16
Assay: as above
Experimental: as §1

Binder	yeast fitness gain
B1	inactive: 0.0385
MAARAVFLALSAQLLQARLMKEESPVVSWRLEPEDGTALCFIF [BAGE, Q13072]	inactive: 0.0159

Target: SARS-CoV-2 NSP2
Assay: as above
Experimental: as §1

Binder	yeast fitness gain
B1	inactive: -0.162
MAARAVFLALSAQLLQARLMKEESPVVSWRLEPEDGTALCFIF [BAGE, Q13072]	inactive: -0.101

Target: SARS-CoV-2 NSP4
Assay: as above
Experimental: as §1

Binder	yeast fitness gain
B1	inactive: 0.0357
MAARAVFLALSAQLLQARLMKEESPVVSWRLEPEDGTALCFIF [BAGE, Q13072]	inactive: -0.0449

Target: SARS-CoV-2 NSP5
Assay: as above
Experimental: as §1

Binder	yeast fitness gain
B1	inactive: 0.00364
MAARAVFLALSAQLLQARLMKEESPVVSWRLEPEDGTALCFIF [BAGE, Q13072]	inactive: -0.00268

Target: SARS-CoV-2 NSP6
Assay: as above
Experimental: as §1

Binder	yeast fitness gain
B1	inactive: 0.0436
MAARAVFLALSAQLLQARLMKEESPVVSWRLEPEDGTALCFIF [BAGE, Q13072]	inactive: 0.042

Target: SARS-CoV-2 NSP7
Assay: as above
Experimental: as §1

Binder	yeast fitness gain
B1	inactive: 0.0563
MAARAVFLALSAQLLQARLMKEESPVVSWRLEPEDGTALCFIF [BAGE, Q13072]	inactive: 0.0198

Target: SARS-CoV-2 NSP8
Assay: as above
Experimental: as §1

Binder	yeast fitness gain
B1	inactive: 0.0235
MAARAVFLALSAQLLQARLMKEESPVVSWRLEPEDGTALCFIF [BAGE, Q13072]	inactive: -0.0271

Target: SARS-CoV-2 NSP9
Assay: as above
Experimental: as §1

Binder	yeast fitness gain
B1	inactive: 0.00862
MAARAVFLALSAQLLQARLMKEESPVVSWRLEPEDGTALCFIF [BAGE, Q13072]	inactive: -0.0214

Target: SARS-CoV-2 ORF10
Assay: as above
Experimental: as §1

Binder	yeast fitness gain
B1	inactive: -0.0102
MAARAVFLALSAQLLQARLMKEESPVVSWRLEPEDGTALCFIF [BAGE, Q13072]	inactive: 0.0118

Target: SARS-CoV-2 ORF3A
Assay: as above
Experimental: as §1

Binder	yeast fitness gain
B1	inactive: 0.0985
MAARAVFLALSAQLLQARLMKEESPVVSWRLEPEDGTALCFIF [BAGE, Q13072]	inactive: 0.038

Target: SARS-CoV-2 ORF3B
Assay: as above
Experimental: as §1

Binder	yeast fitness gain
B1	inactive: 0.00141
MAARAVFLALSAQLLQARLMKEESPVVSWRLEPEDGTALCFIF [BAGE, Q13072]	inactive: 0.00469

Target: SARS-CoV-2 ORF6
Assay: as above
Experimental: as §1

Binder	yeast fitness gain
B1	inactive: 0.0214
MAARAVFLALSAQLLQARLMKEESPVVSWRLEPEDGTALCFIF [BAGE, Q13072]	inactive: 0.002

Target: SARS-CoV-2 ORF7A
Assay: as above
Experimental: as §1

Binder	yeast fitness gain
B1	inactive: -0.0561
MAARAVFLALSAQLLQARLMKEESPVVSWRLEPEDGTALCFIF [BAGE, Q13072]	inactive: 0.064

Target: SARS-CoV-2 ORF7B
Assay: as above
Experimental: as §1

Binder	yeast fitness gain
B1	inactive: -0.0123
MAARAVFLALSAQLLQARLMKEESPVVSWRLEPEDGTALCFIF [BAGE, Q13072]	inactive: 0.0411

Target: SARS-CoV-2 ORF8
Assay: as above
Experimental: as §1

Binder	yeast fitness gain
B1	inactive: 0.00314
MAARAVFLALSAQLLQARLMKEESPVVSWRLEPEDGTALCFIF [BAGE, Q13072]	inactive: 0.0467

Target: SARS-CoV-2 ORF9B
Assay: as above
Experimental: as §1

Binder	yeast fitness gain
B1	inactive: 0.0207
MAARAVFLALSAQLLQARLMKEESPVVSWRLEPEDGTALCFIF [BAGE, Q13072]	inactive: 0.0237

Target: SARS-CoV-2 ORF9Bwu (the 73-codon ORF)
Assay: as above
Experimental: as §1

Binder	yeast fitness gain
B1	inactive: 0.0322
MAARAVFLALSAQLLQARLMKEESPVVSWRLEPEDGTALCFIF [BAGE, Q13072]	inactive: 0.0257

Target: SARS-CoV-2 S
Assay: as above
Experimental: as §1

Binder	yeast fitness gain
B1	inactive: 0.0758
MAARAVFLALSAQLLQARLMKEESPVVSWRLEPEDGTALCFIF [BAGE, Q13072]	inactive: 0.0336
